According to publication PMC4336329 (PLoS ONE, 2015):
Hit rate of the full screen: of about 310,000 compounds, about 14,000 (4.5%) showed an effect of 50% or more. The effect is printed as a negative number. The list shows a part of the results.

molecular target: human ether-à-go-go-related gene (hERG) potassium channel (human, UniProt Q12809); test: primary screen, population patch clamp on CHO cells stably expressing hERG
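Also: peak tail current of the secondary pulse compared with the same well before compound.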

Sequence of human ether-à-go-go-related gene (hERG) potassium channel (Q12809 whole entry, looked up): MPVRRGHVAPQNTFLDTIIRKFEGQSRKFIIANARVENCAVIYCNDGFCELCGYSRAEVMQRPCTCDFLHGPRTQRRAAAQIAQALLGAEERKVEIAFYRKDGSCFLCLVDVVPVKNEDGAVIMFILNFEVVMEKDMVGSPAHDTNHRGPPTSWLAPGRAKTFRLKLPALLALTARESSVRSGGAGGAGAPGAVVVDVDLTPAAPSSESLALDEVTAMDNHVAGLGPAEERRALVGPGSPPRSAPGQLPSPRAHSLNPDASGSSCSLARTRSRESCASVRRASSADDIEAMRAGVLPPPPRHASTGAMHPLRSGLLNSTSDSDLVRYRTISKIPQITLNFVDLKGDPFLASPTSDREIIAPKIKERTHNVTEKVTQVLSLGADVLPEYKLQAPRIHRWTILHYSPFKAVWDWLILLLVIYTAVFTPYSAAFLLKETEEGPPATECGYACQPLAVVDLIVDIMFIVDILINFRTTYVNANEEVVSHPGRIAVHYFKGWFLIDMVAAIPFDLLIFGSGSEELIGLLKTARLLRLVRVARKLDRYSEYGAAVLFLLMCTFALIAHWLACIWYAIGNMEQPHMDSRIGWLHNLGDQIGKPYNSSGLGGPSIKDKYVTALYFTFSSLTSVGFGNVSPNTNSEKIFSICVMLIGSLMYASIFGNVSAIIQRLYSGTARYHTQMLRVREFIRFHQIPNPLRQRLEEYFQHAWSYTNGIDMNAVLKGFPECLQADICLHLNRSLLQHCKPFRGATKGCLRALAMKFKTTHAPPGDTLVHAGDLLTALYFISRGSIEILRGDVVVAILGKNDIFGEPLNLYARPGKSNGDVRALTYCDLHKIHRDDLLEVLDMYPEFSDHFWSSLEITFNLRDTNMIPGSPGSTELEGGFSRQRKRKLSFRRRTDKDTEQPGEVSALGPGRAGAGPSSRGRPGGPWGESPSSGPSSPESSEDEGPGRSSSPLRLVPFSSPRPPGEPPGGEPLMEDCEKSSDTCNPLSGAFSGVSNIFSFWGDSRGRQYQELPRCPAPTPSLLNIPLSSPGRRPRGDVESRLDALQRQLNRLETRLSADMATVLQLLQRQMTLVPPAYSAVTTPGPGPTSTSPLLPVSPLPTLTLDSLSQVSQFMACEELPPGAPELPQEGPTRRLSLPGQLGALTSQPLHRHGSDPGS

Compound	hERG current change (%, negative = inhibition) at 10uM [%]
Cc1c(C(=O)NC2=NCCS2)oc2ccccc12	-25.4
COc1ccccc1-c1cc(C(=O)NCc2cccs2)no1	-0.487
O=C(CSc1nnc(CNC(=O)c2ccc(F)cc2)o1)NCC1CCCO1 (centres unmarked)	5.71
COCCCN1CN=C(Nc2nc3ccccc3o2)NC1	5.82
COc1ccccc1C(=O)Nc1nnc(C)s1	0.34
CCN1CCN(c2ccc(NC(=O)c3cccc4ncccc34)cc2)CC1	-5
CCOc1cc(C(=O)NCCCNC(=O)c2cc(OCC)c(OCC)c(OCC)c2)cc(OCC)c1OCC	22.3
CN(CC(=O)Nc1cccc(F)c1)C(=O)c1cn(-c2ccccc2)nc1-c1cccs1	9.6
COc1ccc(OC)c(S(=O)(=O)N2Cc3ccccc3CC2C(=O)Nc2nccs2)c1 (centres unmarked)	22.2
Cc1cccc(NS(=O)(=O)c2c(C)noc2C)c1	4.75
Cc1ccc2[nH]c3c(c2c1)CN(C(=O)CN(C)CC1OCCO1)CC3	12.7
COc1cc2c(cc1OC)CN(Cc1nc3ccsc3c(=O)[nH]1)CC2	-11.6
C/C(=N\Nc1ccc([N+](=O)[O-])cc1[N+](=O)[O-])c1cccnc1	-11.7
O=C(Nc1cccn(Cc2c(Cl)cccc2Cl)c1=O)c1ccc(Cl)cc1	-0.226
C[C@H]1Oc2ccccc2C(=O)C1C(=O)c1ccccc1 (some centres unmarked)	-9.41
COc1ccccc1N1CCN(C(=O)CCNS(=O)(=O)c2ccc(Br)s2)CC1	-31.3
COP(=O)(OC)c1nc(-c2ccc(C)cc2)oc1N1CCCCC1	-10.2
CCOC(=O)C1=C(N)Oc2ccc3ccccc3c2C1c1cccnc1 (centres unmarked)	0.98
CN(C)CCOCCOc1ccc(Cl)c2ccccc12.O=C(O)C(=O)O	-44.5
CCCOc1ccccc1C1C(C(=O)OC)=CN(C(C)C)C=C1C(=O)OC	-37.2

Compound	hERG current change (%, negative = inhibition) at 10uM [%]
CCCN1Cc2cccc(C(=O)NC(CC(=O)OCC)c3ccc(OC(C)C)cc3)c2C1=O (centres unmarked)	-37.6
COc1ccc(OCC(=O)NNC(=O)C(=O)Nc2cc(OC)ccc2OC)cc1	12.8
CC1Cc2ccccc2N1C(=O)CSc1nnc(-c2ccccc2)c(-c2ccccc2)n1 (centres unmarked)	-3.48
CCOC(=O)c1cnn(-c2cc(C)nc3c(-c4ccccc4)c(C)nn23)c1N	8.63
O=C(CN1CCN(C(=O)c2ccco2)CC1)Nc1ccc(Br)cc1	5.38
COc1ccc(CCNC(=O)CCC(=O)N2CCN(S(=O)(=O)c3ccccc3)CC2)cc1OC	4.4
Cc1ccc2sc3ccc(NC(=O)c4ccccc4Cl)cc3c(=O)c2c1	8.98
O=C(CSC1CC(=O)N(CCc2ccccc2)C1=O)Nc1cccc(Cl)c1 (centres unmarked)	11.8
Cn1c(=O)c2c(nc(Br)n2C/C=N/NC(N)=S)n(C)c1=O	7.76
NC(=O)c1ccccc1NC(=O)CN1CCOCC1	7.22
Cc1cc(N2CCCCC2)nc(SCC(=O)c2ccccc2)n1	7.79
CC(C)CN(C(=O)c1ccc(N2CCCC2=O)cc1)C1CCS(=O)(=O)C1 (centres unmarked)	6.18
CC1CCN(C(NC(=O)c2ccco2)C(=O)c2ccccc2)CC1 (centres unmarked)	-23.8
CCCCNc1c(-c2ccc(OC)c(SC3CCCCC3)c2)nc2cnccn12.O=C(O)C(F)(F)F	-14.4
C=CCOC(=O)C1=C[C@H](c2csc3ccccc23)C[C@H](OCc2ccc(CO)cc2)O1	-3.64
NC(=O)c1ccc(NC(=O)CN2CCN(c3ccccc3)CC2)cc1	12.6
COCc1c(C(N)=O)nnn1-c1nonc1N	8.94
C/C(=N\O)C(=O)NCC1CCNCC1	7.94
O=Cc1c(N2CCOCC2)nc2ccccn2c1=O	9.17
COC(=O)c1ccc(NC(=O)CN2CCN(c3ccc(Cl)cc3)CC2)cc1	11.9

Compound	hERG current change (%, negative = inhibition) at 10uM [%]
CCc1ccc(OCCSc2nc3ccccc3n2CCC(=O)O)cc1	22
CCCCCSc1nncc(=O)[nH]1	-6.35
N#Cc1ccccc1NC(=O)c1cccc(COc2ccc(Cl)cc2Cl)c1	9.3
O=C1CC2CS(=O)(=O)CC2N1c1ccc(Oc2ccccc2)cc1 (centres unmarked)	-5.51
COc1ccc(C(C)NC(=O)C2CCCO2)cc1OC (centres unmarked)	4.73
Cc1ccc2oc(=O)c3cc(C(=O)NCCCN4CCc5ccccc5C4)sc3c2c1	-6.63
O=C1CCNc2ccc(-c3ccccc3)cc21	2.93
CCCCN(CC)CCNC(=O)CNC(=O)Cn1ccc2ccccc2c1=O	4.99
CN(Cc1ccccc1)c1c([N+](=O)[O-])c(=O)n(C)c2ccccc12	-31.6
Fc1ccc(C2=Nc3cccc4cccc(c34)N2)cc1	20.9
Cc1ccnc2nc(C(=O)OCC(=O)NCc3cccc(Cl)c3)nn12	-4.11
COc1ccc(Cc2nnc(NC(=O)c3ccccc3Cl)s2)cc1OC	16.1
N#Cc1nc(-c2ccc(F)cc2)oc1NCc1ccccc1	5.96
O=C(CCc1ccccc1)NNC(=O)c1cccc(F)c1	9.46
O=C(NCCOc1ccccc1F)Nc1ccc(Br)cc1	8.52
O=C(NCCCO)C(=O)NCCc1ccc(Cl)cc1	-3.89
CN1/C(=C\C(=O)C(F)F)C(C)(C)c2ccccc21	-10.2
Clc1cccc(N=NN2CCOCC2)c1Cl	8.51
Cc1c(C(=O)N/N=C/c2ccccc2)[nH]c2c([N+](=O)[O-])cccc12	8.67
